The source of these data is the supplement of paper PMC11125491.

The labels stand for the following.
B1: UniProt A0EPZ9; numbered along this chain (parent)
chain: MDWQKSLTLIVALTLSRGIGLKNDLPWKLKSDMMFFSRVTSGLLVTRSTGQMNVVLMGRKTWESLPAHSRPLKNRINVVISRQEVLDLGGGAYHARSLDDALALLSQIYDSTSKIQLNRVFVIGGGELCKAAMEHSRLNRIIATVIHNEVDCDVFFPIDFRSSQSCLPWRKQDHSVLEAWVGSKVPQGKINENGFIYEFEMWIRDI

The variants in this series derive from B1. Briefly: selection coefficient against synonymous wild-type codons (log2 per generation); higher = faster growth than wild type. To be noted: with Saccharomyces cerevisiae carrying the variant on a plasmid. Here is the method:
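Pooled growth of yeast carrying single-residue variants of P. jirovecii dihydrofolate reductase (own DFR1 gene intact), two passages at 30 °C, three cultures, sequenced before and after. Codons with under 15 starting reads are left out; codons of one change are averaged.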

± gives the standard deviation of the averaged measurements. Growth of baker's yeast expressing single-residue variants of Pneumocystis jirovecii dihydrofolate reductase in 8.8 or 44 µM methotrexate (about 75% and 90% inhibition of the wild type). Selection coefficient per generation; 0 = like wild type, above 0 = less sensitive, below 0 = more sensitive or loss of function. No active / inactive call per row; the paper calls resistant above 0.220 (8.8 µM) or 0.243 (44 µM) together with a significance test. At 44 µM about 15% of codons end with one read or none, so the lowest values are floors (replicate rank correlation 0.74; 0.94 at 8.8 µM).

Turning to E178W, the “selection coefficient against synonymous wild-type codons (log2)” value (“selection coefficient … (log2)” for short) was -0.536 ± 0.12 (methotrexate 8.8 µM) and -0.211 ± 0.029 (methotrexate 44 µM).

As for E178C, the “selection coefficient … (log2)” value by setting is: (methotrexate 8.8 µM) -0.281 ± 0.019; (methotrexate 44 µM) -0.264 ± 0.081.

On to N118K, for which the “selection coefficient … (log2)” value was -0.155 ± 0.046 (methotrexate 8.8 µM) and -0.192 ± 0.21 (methotrexate 44 µM).

In the case of N118P, the “selection coefficient … (log2)” value is, setting by setting: (methotrexate 8.8 µM) 0.177 ± 0.042; (methotrexate 44 µM) 0.256 ± 0.045.

Take T49G: the “selection coefficient … (log2)” value runs as follows: (methotrexate 8.8 µM) -0.0474 ± 0.039; (methotrexate 44 µM) -0.0333 ± 0.068.

As for T49W, the “selection coefficient … (log2)” value was -0.452 ± 0.23 (methotrexate 8.8 µM) and -0.295 ± 0.076 (methotrexate 44 µM).

On to E127M, for which the “selection coefficient … (log2)” value (methotrexate 8.8 µM) is -0.0805 ± 0.025 and the “selection coefficient … (log2)” value (methotrexate 44 µM) is -0.0739 ± 0.056.

For I141W, the “selection coefficient … (log2)” value runs as follows: (methotrexate 8.8 µM) -0.573 ± 0.08; (methotrexate 44 µM) -0.363 ± 0.12.

Regarding I141T, the “selection coefficient … (log2)” value (methotrexate 8.8 µM) is -0.399 ± 0.15 and the “selection coefficient … (log2)” value (methotrexate 44 µM) was -0.261 ± 0.1.

For Q172N, the “selection coefficient … (log2)” value runs as follows: (methotrexate 8.8 µM) -0.161 ± 0.089; (methotrexate 44 µM) -0.186 ± 0.095.

A143S: the “selection coefficient … (log2)” value reads like this: (methotrexate 8.8 µM) -0.0897 ± 0.04; (methotrexate 44 µM) -0.103 ± 0.1.

Regarding A143I, the “selection coefficient … (log2)” value is 0.0167 ± 0.013 (methotrexate 8.8 µM) and 0.029 ± 0.087 (methotrexate 44 µM).

Regarding A95H, the “selection coefficient … (log2)” value is -0.727 ± 0.019 (methotrexate 8.8 µM) and -0.224 ± 0.058 (methotrexate 44 µM).

A95R: the “selection coefficient … (log2)” value was -0.612 ± 0.11 (methotrexate 8.8 µM) and -0.207 ± 0.097 (methotrexate 44 µM).

Turning to W202V, the “selection coefficient … (log2)” value (methotrexate 8.8 µM) was -0.227 ± 0.077 and the “selection coefficient … (log2)” value (methotrexate 44 µM) is -0.174 ± 0.091.

Take W202S: the “selection coefficient … (log2)” value (methotrexate 8.8 µM) is -0.365 ± 0.11 and the “selection coefficient … (log2)” value (methotrexate 44 µM) is -0.134 ± 0.1.

Take D100L: the “selection coefficient … (log2)” value by setting is: (methotrexate 8.8 µM) -0.59 ± 0.12; (methotrexate 44 µM) -0.226 ± 0.17.

D100Q: the “selection coefficient … (log2)” value is -0.255 ± 0.063 (methotrexate 8.8 µM) and -0.321 ± 0.06 (methotrexate 44 µM).

On to L117I, for which the “selection coefficient … (log2)” value (methotrexate 8.8 µM) turned out to be 0.166 ± 0.047 and the “selection coefficient … (log2)” value (methotrexate 44 µM) is 0.219 ± 0.047.

Regarding L117Q, the “selection coefficient … (log2)” value is -0.284 ± 0.054 (methotrexate 8.8 µM) and -0.213 ± 0.066 (methotrexate 44 µM).

Take G42E: the “selection coefficient … (log2)” value is, setting by setting: (methotrexate 8.8 µM) 0.128 ± 0.047; (methotrexate 44 µM) 0.148 ± 0.053.

Consider G42Q, for which the “selection coefficient … (log2)” value is, setting by setting: (methotrexate 8.8 µM) -0.0471 ± 0.14; (methotrexate 44 µM) -0.0425 ± 0.15.

Turning to G42D, the “selection coefficient … (log2)” value by setting is: (methotrexate 8.8 µM) 0.26 ± 0.015; (methotrexate 44 µM) 0.267 ± 0.027.

As for S175I, the “selection coefficient … (log2)” value is, setting by setting: (methotrexate 8.8 µM) -0.355 ± 0.059; (methotrexate 44 µM) -0.247 ± 0.094.

R170V: the “selection coefficient … (log2)” value reads like this: (methotrexate 8.8 µM) -0.0038 ± 0.029; (methotrexate 44 µM) -0.106 ± 0.079.

Take R170S: the “selection coefficient … (log2)” value (methotrexate 8.8 µM) worked out at 0.00931 ± 0.077 and the “selection coefficient … (log2)” value (methotrexate 44 µM) is -0.0277 ± 0.11.

Consider R96D, for which the “selection coefficient … (log2)” value (methotrexate 8.8 µM) is -0.452 ± 0.072 and the “selection coefficient … (log2)” value (methotrexate 44 µM) was -0.268 ± 0.058.

As to R96Q, the “selection coefficient … (log2)” value was -0.157 ± 0.056 (methotrexate 8.8 µM) and -0.146 ± 0.11 (methotrexate 44 µM).

On to W180L, for which the “selection coefficient … (log2)” value (methotrexate 8.8 µM) is 0.0674 ± 0.061 and the “selection coefficient … (log2)” value (methotrexate 44 µM) was -0.0186 ± 0.13.

With Q107G, the “selection coefficient … (log2)” value is, setting by setting: (methotrexate 8.8 µM) -0.12 ± 0.044; (methotrexate 44 µM) -0.116 ± 0.082.

For Q107M, the “selection coefficient … (log2)” value is -0.205 ± 0.076 (methotrexate 8.8 µM) and -0.201 ± 0.17 (methotrexate 44 µM).

As to H68S, the “selection coefficient … (log2)” value runs as follows: (methotrexate 8.8 µM) -0.0281 ± 0.05; (methotrexate 44 µM) -0.00282 ± 0.061.

Take H68T: the “selection coefficient … (log2)” value was -0.078 ± 0.078 (methotrexate 8.8 µM) and -0.0665 ± 0.13 (methotrexate 44 µM).

On to P186F, for which the “selection coefficient … (log2)” value is, setting by setting: (methotrexate 8.8 µM) -0.559 ± 0.18; (methotrexate 44 µM) -0.376 ± 0.038.

As for F121P, the “selection coefficient … (log2)” value is -0.59 ± 0.13 (methotrexate 8.8 µM) and -0.21 ± 0.05 (methotrexate 44 µM).

As to F121V, the “selection coefficient … (log2)” value is -0.0487 ± 0.019 (methotrexate 8.8 µM) and -0.0641 ± 0.099 (methotrexate 44 µM).

With S183L, the “selection coefficient … (log2)” value runs as follows: (methotrexate 8.8 µM) -0.334 ± 0.11; (methotrexate 44 µM) -0.339 ± 0.12.

As for S183V, the “selection coefficient … (log2)” value by setting is: (methotrexate 8.8 µM) -0.217 ± 0.076; (methotrexate 44 µM) -0.273 ± 0.15.

With S183E, the “selection coefficient … (log2)” value reads like this: (methotrexate 8.8 µM) -0.0406 ± 0.11; (methotrexate 44 µM) -0.0698 ± 0.079.

Turning to S183T, the “selection coefficient … (log2)” value runs as follows: (methotrexate 8.8 µM) -0.0138 ± 0.037; (methotrexate 44 µM) -0.128 ± 0.1.

In the case of S183F, the “selection coefficient … (log2)” value (methotrexate 8.8 µM) is -0.251 ± 0.058 and the “selection coefficient … (log2)” value (methotrexate 44 µM) is -0.26 ± 0.23.

For V122L, the “selection coefficient … (log2)” value reads like this: (methotrexate 8.8 µM) -0.0651 ± 0.044; (methotrexate 44 µM) -0.0258 ± 0.089.

As to V122S, the “selection coefficient … (log2)” value by setting is: (methotrexate 8.8 µM) -0.714 ± 0.059; (methotrexate 44 µM) -0.24 ± 0.058.

Take I146R: the “selection coefficient … (log2)” value is, setting by setting: (methotrexate 8.8 µM) -0.634 ± 0.15; (methotrexate 44 µM) -0.305 ± 0.11.

Consider I146P, for which the “selection coefficient … (log2)” value reads like this: (methotrexate 8.8 µM) -0.485 ± 0.086; (methotrexate 44 µM) -0.262 ± 0.097.

Regarding M133F, the “selection coefficient … (log2)” value amounted to 0.125 ± 0.011 (methotrexate 8.8 µM) and 0.232 ± 0.034 (methotrexate 44 µM).

Turning to I115R, the “selection coefficient … (log2)” value was -0.169 ± 0.075 (methotrexate 8.8 µM) and -0.146 ± 0.16 (methotrexate 44 µM).

As to I115T, the “selection coefficient … (log2)” value is -0.031 ± 0.051 (methotrexate 8.8 µM) and -0.132 ± 0.061 (methotrexate 44 µM).

On to N148F, for which the “selection coefficient … (log2)” value is, setting by setting: (methotrexate 8.8 µM) -0.235 ± 0.082; (methotrexate 44 µM) -0.255 ± 0.053.

In the case of V79H, the “selection coefficient … (log2)” value reads like this: (methotrexate 8.8 µM) -0.507 ± 0.038; (methotrexate 44 µM) -0.00599 ± 0.099.

In the case of A12M, the “selection coefficient … (log2)” value is -0.27 ± 0.14 (methotrexate 8.8 µM) and -0.178 ± 0.066 (methotrexate 44 µM).

In the case of Q164I, the “selection coefficient … (log2)” value (methotrexate 8.8 µM) is -0.000516 ± 0.033 and the “selection coefficient … (log2)” value (methotrexate 44 µM) was -0.183 ± 0.16.

As to R70C, the “selection coefficient … (log2)” value is -0.223 ± 0.019 (methotrexate 8.8 µM) and -0.227 ± 0.06 (methotrexate 44 µM).

On to R70A, for which the “selection coefficient … (log2)” value was -0.199 ± 0.12 (methotrexate 8.8 µM) and -0.122 ± 0.16 (methotrexate 44 µM).

Turning to S97G, the “selection coefficient … (log2)” value reads like this: (methotrexate 8.8 µM) -0.447 ± 0.12; (methotrexate 44 µM) -0.222 ± 0.087.

As for M52A, the “selection coefficient … (log2)” value (methotrexate 8.8 µM) is -0.135 ± 0.069 and the “selection coefficient … (log2)” value (methotrexate 44 µM) was -0.198 ± 0.085.

G194M: the “selection coefficient … (log2)” value (methotrexate 8.8 µM) was -0.427 ± 0.033 and the “selection coefficient … (log2)” value (methotrexate 44 µM) is -0.299 ± 0.2.

Take K184P: the “selection coefficient … (log2)” value is 0.018 ± 0.021 (methotrexate 8.8 µM) and -0.034 ± 0.081 (methotrexate 44 µM).
